# According to the supplement of paper PMC4166925:
# ± gives the standard deviation of the averaged measurements. In all, about 33,000 sequences were measured (“E-score (dimensionless, -0.5 to 0.5)”: median about -0.049, highest 2% from about 0.37 on). The list shows a part of the results.
# System: T1, PmTbr T-box DNA-binding domain (GST fusion)
# T1 sequence: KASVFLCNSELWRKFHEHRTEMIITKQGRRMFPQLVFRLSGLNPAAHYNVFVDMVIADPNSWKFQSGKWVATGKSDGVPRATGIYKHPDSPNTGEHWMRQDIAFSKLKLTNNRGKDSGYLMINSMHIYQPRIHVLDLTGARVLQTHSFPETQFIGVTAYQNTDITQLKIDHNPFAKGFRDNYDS
# Experiment: PBM E-score of 8-mer (E-score (dimensionless, -0.5 to 0.5)); Tbr is Tbrain of the sea star Patiria miniata (Pm) or the sea urchin Strongylocentrotus purpuratus (Sp); higher = stronger binding preference; most listed sequences are background and not binding sites
# Conditions: the construct has about 5 more residues each side
# Protocol: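 Universal protein-binding microarray (Agilent AMADID 016060, 60-bp probes with a 35-bp variable region) incubated with 200 nM GST-fused Patiria miniata Tbr T-box DNA-binding domain (residues 272-466) in PBS pH 7.5. Scored for every ungapped 8-mer (given with its reverse complement) by the Universal PBM Analysis Suite as E-score (modified Wilcoxon-Mann-Whitney enrichment, range -0.5 to 0.5; >0.45 counts as bound) and Z-score of median probe intensity. Two replicate arrays (datasets 1 and 2).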
# 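Note: 200 nM protein in PBS on universal arrays averaged over duplicate arrays.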
row,Sequence,PBM E-score of 8-mer
1,ATTCCATC,-0.0954 ± 0.0028
2,AGGAAACT,-0.139 ± 0.027
3,CGGGCGGA,-0.189 ± 0.04
4,AAAGATAA,-0.0676 ± 0.051
5,GGCCTTAC,-0.143 ± 0.0078
6,CAGGACCG,-0.191 ± 0.015
7,CTACAGGA,0.116 ± 0.046
8,AAATGATC,-0.0225 ± 0.031
9,CGGGCTCC,-0.332 ± 0.0046
10,CGTGTGTC,0.204 ± 0.018
11,ATGCTTCG,0.051 ± 0.046
12,GCCAATTA,0.138 ± 0.0052
13,ACGTTTAG,-0.0795 ± 0.0073
14,ACAGGATC,-0.0274 ± 0.015
15,CTCACGTC,0.264 ± 0.018
16,GAAACGAA,0.0128 ± 0.033
17,AAAATATG,-0.169 ± 0.0037
18,CGGGACTA,-0.0323 ± 0.069
19,CCCAATTA,-0.0701 ± 0.005
20,CCACATGA,0.00817 ± 0.0018
21,GAAGTGAC,0.379 ± 0.017
22,CGAAGGGC,-0.169 ± 0.0098
23,CGACCTCG,0.14 ± 0.074
24,ACAATAAT,0.0359 ± 0.05
25,TCACGAGA,0.153 ± 0.097

row,Sequence,PBM E-score of 8-mer
1,ACTGAAGC,0.108 ± 0.028
2,CACTCCTG,0.0992 ± 0.0078
3,GCACCAGA,-0.03 ± 0.061
4,CCGCTTTC,-0.0798 ± 0.036
5,AGCCGCAA,0.0636 ± 0.056
6,GGGCTTCA,-0.203 ± 0.028
7,ATAGTCAG,-0.0739 ± 0.082
8,CAAACGCG,0.0696 ± 0.011
9,ATTACCTC,-0.222 ± 0.01
10,AACGCGAC,0.194 ± 0.092
11,GCGTTAGA,0.189 ± 0.00094
12,AATTAACG,-0.0199 ± 0.0039
13,ATGCAAAG,-0.0353 ± 0.024
14,AATGCACT,0.0636 ± 0.028
15,TGCCGACA,0.264 ± 0.01
16,CCATTGTA,-0.0826 ± 0.004
17,TACAAGCA,-0.00648 ± 0.038
18,ACGTATAT,-0.0151 ± 0.029
19,CCCGAAAC,0.0499 ± 0.032
20,ATCTGGTC,-0.152 ± 0.093
21,GACAAACA,0.125 ± 0.0063
22,TGATGCAA,-0.0634 ± 0.069
23,ACCCGGAA,-0.214 ± 0.041
24,CAAAATTC,-0.214 ± 0.0047
25,CTGAAGGC,-0.209 ± 0.064

row,Sequence,PBM E-score of 8-mer
1,TATTTAGA,-0.234 ± 0.029
2,GTCTAGAA,-0.157 ± 0.048
3,CATCCCCG,-0.089 ± 0.0054
4,ATGATAGC,0.125 ± 0.034
5,AAGAATTA,-0.115 ± 0.075
6,GAAAGTCA,-0.106 ± 0.012
7,AAAGCCCA,-0.318 ± 0.025
8,GCTTACGA,-0.175 ± 0.0062
9,GTAATAGA,-0.114 ± 0.0055
10,ATTCTAAC,-0.231 ± 0.014
11,CGTCTCAA,-0.199 ± 0.018
12,AAAGAAAA,-0.0363 ± 0.13
13,CCCCTTAC,-0.192 ± 0.063
14,AATTTACA,0.185 ± 0.084
15,AGTATACG,0.0235 ± 0.017
16,ATAACATC,-0.101 ± 0.065
17,CAATAGCA,0.117 ± 0.08
18,ACTACGCC,-0.0843 ± 0.0083
19,GGAAAGAA,-0.255 ± 0.048
20,ATGGTATA,-0.0748 ± 0.057
21,TGGCGCCA,0.309 ± 0.0053
22,ACTGGGTC,-0.119 ± 0.079
23,CCTGGGAC,-0.131 ± 0.0099
24,TGCGCCAA,0.175 ± 0.014
25,CGGGGTCA,-0.187 ± 0.032

row,Sequence,PBM E-score of 8-mer
1,AACCTCTG,-0.151 ± 0.032
2,CCCTCCCA,-0.132 ± 0.0075
3,AACAAGTA,0.161 ± 0.051
4,AAGATCCA,-0.165 ± 0.029
5,CTTTCTTA,-0.0589 ± 0.096
6,GTTCAATA,-0.161 ± 0.06
7,CTTCCGGA,-0.287 ± 0.054
8,GCGTAATA,0.146 ± 0.028
9,AGTACGCG,-0.0961 ± 0.015
10,GACTCGGC,-0.00342 ± 0.13
11,TATCCCCA,-0.248 ± 0.049
12,GAATAGTC,-0.0319 ± 0.025
13,CACTCCAA,-0.00864 ± 0.094
14,CAAAAGTC,-0.0945 ± 0.015
15,ATAGCTCC,-0.134 ± 0.022
16,ATGGGAAA,-0.187 ± 0.074
17,ACCATAGT,-0.0904 ± 0.015
18,GTGTCTTA,-0.0232 ± 0.028
19,GCTATACA,-0.126 ± 0.025
20,GTAAACAA,0.073 ± 0.035
21,CGCCATCC,-0.0495 ± 0.066
22,AACGATGC,0.0167 ± 0.089
23,AGTTTCAA,-0.256 ± 0.043
24,CTCAATGC,-0.0497 ± 0.021
25,ATGTTGAA,-0.107 ± 0.017

row,Sequence,PBM E-score of 8-mer
1,AAACGAGT,0.0158 ± 0.00093
2,AGCTCCTC,-0.184 ± 0.07
3,CCGTGCCC,-0.16 ± 0.0037
4,TCCACGAA,-0.215 ± 0.054
5,GACATTAA,-0.133 ± 0.023
6,CATGAGGA,-0.268 ± 0.024
7,CCCCACGA,0.119 ± 0.053
8,CGACTTGC,0.161 ± 0.025
9,TACAGCTA,-0.247 ± 0.0038
10,ACGCAAAT,0.0354 ± 0.031
11,CGTGAAAC,0.339 ± 0.022
12,ACAATGAT,0.0456 ± 0.019
13,GTGAGGAA,0.331 ± 0.0099
14,TCGGGCAA,0.0653 ± 0.066
15,GTTGCGAA,0.389 ± 0.015
16,AGACAGCG,0.00298 ± 0.045
17,GTCGGTAA,0.0974 ± 0.0095
18,CGCACGGC,0.105 ± 0.0061
19,ATATAAAC,-0.147 ± 0.022
20,AGTCGGCC,-0.0555 ± 0.065
21,GGGTTTAA,0.00807 ± 0.021
22,CTTACCAC,0.229 ± 0.012
23,GAGGAATC,-0.0116 ± 0.0027
24,AATAACCA,-0.185 ± 0.08
25,AATACAAC,-0.0847 ± 0.091

row,Sequence,PBM E-score of 8-mer
1,ATGATTAC,-0.0745 ± 0.038
2,AGCCAGTA,-0.156 ± 0.014
3,AAATAAAA,-0.0184 ± 0.16
4,ACATTCAG,0.03 ± 0.05
5,TAGATATA,-0.172 ± 0.085
6,ATAGCCTA,-0.12 ± 0.028
7,ATAACGGA,-0.205 ± 0.031
8,AGGCTTAT,-0.14 ± 0.1
9,CGTGCAAC,0.0398 ± 0.03
10,GTCTTAGA,-0.156 ± 0.026
11,GCTGCTAA,0.0962 ± 0.071
12,AATACAGG,-0.0818 ± 0.028
13,GTTGGCTA,-0.088 ± 0.018
14,ACGCGCCC,-0.0239 ± 0.011
15,AACAGATC,0.164 ± 0.015
16,GGGTTACC,-0.264 ± 0.039
17,CCATTATC,-0.0869 ± 0.063
18,CCAGTCCG,-0.0865 ± 0.046
19,TAATCAGA,-0.153 ± 0.043
20,CATTTCAC,0.25226 ± 2.1e-05
21,GCCCTCAC,0.0547 ± 0.05
22,CTCCGCAC,-0.0133 ± 0.13
23,CATCTGCC,-0.176 ± 0.007
24,AACTGCTC,-0.136 ± 0.0067
25,CCTGGGGC,-0.12 ± 0.085

row,Sequence,PBM E-score of 8-mer
1,ACATGAAT,0.0781 ± 0.029
2,CGCTCTCC,-0.255 ± 0.065
3,CCCCTCCA,0.0448 ± 0.012
4,ACGATGGG,-0.111 ± 0.034
5,CTATAACA,0.182 ± 0.06
6,AGATTCCC,0.00762 ± 0.068
7,ATACGCGG,-0.0632 ± 0.028
8,AGGGACTG,-0.228 ± 0.026
9,ACGATTAG,-0.0224 ± 0.084
10,GTGTTTAA,0.159 ± 0.061
11,GCAAAAGA,-0.0507 ± 0.0089
12,ATAGCCCG,-0.243 ± 0.0037
13,AAGTGATT,0.107 ± 0.022
14,ATTCCTCC,-0.291 ± 0.034
15,CTAACGAA,0.24 ± 0.019
16,GGGTGAAC,-0.076 ± 0.04
17,CTGTTCGA,0.0476 ± 0.057
18,ATAGACCG,-0.371 ± 0.046
19,CTGTTGCC,0.0226 ± 0.04
20,GACTTTTA,-0.16 ± 0.013
21,CTTCGCTC,0.00268 ± 0.066
22,GGTTAATA,-0.0488 ± 0.1
23,CAGCTGGG,-0.0516 ± 0.054
24,CTGCCGTC,0.0778 ± 0.055
25,GAAATCCA,-0.049 ± 0.033

row,Sequence,PBM E-score of 8-mer
1,AGACTACC,-0.237 ± 0.063
2,ATCAAACC,-0.0905 ± 0.066
3,GCATAGCC,-0.237 ± 0.0025
4,AACGAGTA,-0.105 ± 0.021
5,CGTGGATA,-0.109 ± 0.014
6,AGCACACT,0.298 ± 0.0051
7,ATCCAGTC,-0.281 ± 0.099
8,AAGCGGTC,0.0277 ± 0.061
9,ACGTTCAG,-0.0991 ± 0.042
10,GCGGTACA,-0.0609 ± 0.064
11,ATCAGATC,-0.152 ± 0.078
12,CAATTGTA,-0.0453 ± 0.032
13,ACAACCCC,0.109 ± 0.018
14,GATGGTAC,-0.163 ± 0.0063
15,CCTTAGCC,0.00468 ± 0.014
16,TCTAAAGA,-0.237 ± 0.015
17,ACGGGCAC,-0.059 ± 0.069
18,AACCTTAT,-0.243 ± 0.069
19,ACTCCGGA,-0.0374 ± 0.022
20,AACGGATA,-0.0672 ± 0.039
21,CCAGTCAA,0.0172 ± 0.028
22,AATAGATC,-0.231 ± 0.086
23,CGCGAGGC,0.289 ± 0.019
24,ATGCGAAT,0.0955 ± 0.05
25,AATAATGA,-0.14 ± 0.007

row,Sequence,PBM E-score of 8-mer
1,GAAAATGA,0.00688 ± 0.025
2,AGACCAAG,-0.0914 ± 0.04
3,ACCGGTAC,-0.115 ± 0.012
4,GAATGCAA,-0.15 ± 0.032
5,CGATAAGC,0.124 ± 0.049
6,TGGAGGAA,-0.151 ± 0.042
7,AGATAGGG,-0.0901 ± 0.026
8,CGATTCTA,-0.14 ± 0.07
9,CTGCCAAA,0.186 ± 0.061
10,CTACCGCC,-0.077 ± 0.015
11,AAAAGTCC,-0.161 ± 0.035
12,AGTCCACT,-0.155 ± 0.021
13,AAGAAGGT,-0.0225 ± 0.032
14,AGAAGGCC,-0.15 ± 0.032
15,AAGAACGG,-0.117 ± 0.048
16,AAGTCATC,-0.117 ± 0.05
17,ATTGCAAG,-0.00243 ± 0.039
18,AAGGCTAT,-0.148 ± 0.013
19,AGGCAGAA,-0.202 ± 0.015
